Test results: PMC9984901
Results are given in words; binding and its absence hold for the method and conditions named. In cells and extracts the contact can be indirect. Some entries that bind do so weakly or less than the wild type.

The chains behind the UniProt entries cited, without tags or fusion partners. Where a name states a change or a piece, a line headed by the entry shows the natural chain unless it says otherwise. A line that says so, or that is headed by a name, gives the form on record, which may keep a tag or linker. Residues count along the entry.
UniProt P04198: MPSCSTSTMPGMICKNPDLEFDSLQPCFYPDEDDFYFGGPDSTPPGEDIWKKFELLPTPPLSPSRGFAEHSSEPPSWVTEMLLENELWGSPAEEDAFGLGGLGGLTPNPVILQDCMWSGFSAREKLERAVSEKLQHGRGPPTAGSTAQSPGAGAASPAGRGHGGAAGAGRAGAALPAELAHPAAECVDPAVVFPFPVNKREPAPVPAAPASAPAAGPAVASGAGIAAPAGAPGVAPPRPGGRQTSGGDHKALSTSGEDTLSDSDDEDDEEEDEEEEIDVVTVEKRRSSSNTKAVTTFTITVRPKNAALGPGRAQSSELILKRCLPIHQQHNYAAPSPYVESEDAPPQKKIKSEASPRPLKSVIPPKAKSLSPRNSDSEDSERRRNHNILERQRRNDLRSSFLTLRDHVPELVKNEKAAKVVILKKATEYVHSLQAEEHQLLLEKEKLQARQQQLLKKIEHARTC
Δ382–464 deletion mutant N-Myc with a 3xFLAG tag: residues 1-381 of P04198
Δ346–464 deletion mutant N-Myc with a 3xFLAG tag: residues 1-345 of P04198
Δ281–464 deletion mutant N-Myc with a 3xFLAG tag: residues 1-280 of P04198
Δ1–123 deletion mutant N-Myc with a 3xFLAG tag: residues 124-464 of P04198
UniProt Q09472: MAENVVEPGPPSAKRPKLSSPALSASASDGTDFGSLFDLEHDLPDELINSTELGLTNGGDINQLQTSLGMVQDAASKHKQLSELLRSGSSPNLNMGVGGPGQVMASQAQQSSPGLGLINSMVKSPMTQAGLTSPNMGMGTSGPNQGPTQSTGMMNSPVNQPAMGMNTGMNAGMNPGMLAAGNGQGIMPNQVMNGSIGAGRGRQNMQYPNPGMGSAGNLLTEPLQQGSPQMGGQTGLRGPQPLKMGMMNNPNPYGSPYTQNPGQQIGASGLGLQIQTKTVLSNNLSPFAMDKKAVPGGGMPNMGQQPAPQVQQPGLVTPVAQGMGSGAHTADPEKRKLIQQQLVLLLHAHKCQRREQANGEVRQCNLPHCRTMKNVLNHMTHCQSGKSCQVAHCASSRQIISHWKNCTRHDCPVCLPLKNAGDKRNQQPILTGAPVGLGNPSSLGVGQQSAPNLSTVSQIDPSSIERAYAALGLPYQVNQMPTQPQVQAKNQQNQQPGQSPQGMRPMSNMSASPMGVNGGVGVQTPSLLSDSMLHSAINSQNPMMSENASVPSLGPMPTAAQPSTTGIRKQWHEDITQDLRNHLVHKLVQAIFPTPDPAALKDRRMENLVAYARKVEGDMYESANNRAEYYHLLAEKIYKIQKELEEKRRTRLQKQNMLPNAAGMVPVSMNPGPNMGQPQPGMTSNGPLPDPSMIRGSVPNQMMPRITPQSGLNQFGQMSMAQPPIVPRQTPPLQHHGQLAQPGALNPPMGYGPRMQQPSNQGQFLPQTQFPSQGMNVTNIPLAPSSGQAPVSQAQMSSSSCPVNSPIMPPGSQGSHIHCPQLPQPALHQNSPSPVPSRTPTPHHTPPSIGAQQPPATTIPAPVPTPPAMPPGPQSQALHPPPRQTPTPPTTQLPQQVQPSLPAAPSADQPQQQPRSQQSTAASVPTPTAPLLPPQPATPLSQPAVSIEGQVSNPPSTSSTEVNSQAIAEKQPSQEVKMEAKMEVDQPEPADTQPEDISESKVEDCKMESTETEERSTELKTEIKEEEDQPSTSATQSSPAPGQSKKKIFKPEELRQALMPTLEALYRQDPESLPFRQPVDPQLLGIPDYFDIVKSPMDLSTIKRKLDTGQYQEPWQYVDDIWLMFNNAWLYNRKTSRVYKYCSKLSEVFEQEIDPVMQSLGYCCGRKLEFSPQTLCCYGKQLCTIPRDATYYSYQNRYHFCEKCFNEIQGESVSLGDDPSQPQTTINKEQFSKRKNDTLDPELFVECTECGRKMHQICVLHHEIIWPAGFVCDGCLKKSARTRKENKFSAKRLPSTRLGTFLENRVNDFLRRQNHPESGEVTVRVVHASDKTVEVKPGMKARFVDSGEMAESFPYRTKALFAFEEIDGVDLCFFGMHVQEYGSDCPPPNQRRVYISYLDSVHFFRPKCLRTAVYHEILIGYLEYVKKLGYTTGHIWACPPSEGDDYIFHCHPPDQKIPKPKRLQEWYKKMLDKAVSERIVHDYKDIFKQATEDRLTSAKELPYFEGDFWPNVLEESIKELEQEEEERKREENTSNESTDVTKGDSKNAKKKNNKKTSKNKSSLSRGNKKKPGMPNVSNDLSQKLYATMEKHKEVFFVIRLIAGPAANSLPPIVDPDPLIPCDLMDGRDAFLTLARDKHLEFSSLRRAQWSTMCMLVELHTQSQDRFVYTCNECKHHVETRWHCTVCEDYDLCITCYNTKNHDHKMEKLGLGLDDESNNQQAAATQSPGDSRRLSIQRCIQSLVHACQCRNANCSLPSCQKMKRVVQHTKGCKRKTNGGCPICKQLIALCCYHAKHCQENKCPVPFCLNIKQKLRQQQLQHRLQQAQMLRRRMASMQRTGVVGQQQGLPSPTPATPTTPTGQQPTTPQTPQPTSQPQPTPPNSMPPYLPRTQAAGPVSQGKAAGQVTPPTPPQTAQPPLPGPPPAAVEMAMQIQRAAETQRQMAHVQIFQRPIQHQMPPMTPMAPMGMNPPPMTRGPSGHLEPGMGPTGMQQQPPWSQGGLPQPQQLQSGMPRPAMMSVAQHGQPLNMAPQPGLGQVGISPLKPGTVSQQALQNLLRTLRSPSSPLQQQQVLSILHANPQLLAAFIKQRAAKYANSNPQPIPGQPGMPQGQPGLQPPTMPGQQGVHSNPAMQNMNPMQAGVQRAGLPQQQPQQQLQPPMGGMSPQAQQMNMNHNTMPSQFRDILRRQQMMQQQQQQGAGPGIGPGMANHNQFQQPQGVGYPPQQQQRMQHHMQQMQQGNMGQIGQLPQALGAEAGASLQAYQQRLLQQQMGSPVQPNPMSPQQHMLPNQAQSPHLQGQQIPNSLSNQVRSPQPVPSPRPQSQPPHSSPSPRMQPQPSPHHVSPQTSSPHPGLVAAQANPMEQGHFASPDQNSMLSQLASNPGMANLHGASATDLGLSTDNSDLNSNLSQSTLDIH

Tests used:
[1] = target: Δ1–123 deletion mutant N-Myc with a 3xFLAG tag (UniProt P04198); assay: co-IP; lysates of 293 cells (293T in the methods) about 72 h after transfection with full-length or deletion mutant FLAG-tagged N-Myc or empty vector; FLAG magnetic beads; Western blot for endogenous p300 and FLAG
[2] = target: Δ346–464 deletion mutant N-Myc with a 3xFLAG tag (UniProt P04198); assay: as above
[3] = target: 3xFLAG-N-Myc (full-length N-Myc with a 3xFLAG tag) (UniProt P04198); assay: as above
[4] = target: Δ382–464 deletion mutant N-Myc with a 3xFLAG tag (UniProt P04198); assay: as above
[5] = target: Δ281–464 deletion mutant N-Myc with a 3xFLAG tag (UniProt P04198); assay: as above
[6] = target: N-Myc proto-oncogene protein (human (endogenous in SK-N-BE(2))) (UniProt P04198); assay: co-IP; endogenous co-IP from SK-N-BE(2) lysate with N-Myc antibody or p300 antibody, normal IgG as negative control; Western blot with N-Myc and p300 antibodies

- binding [1]: no binding
- binding [2]: binds
- binding [3]: binds
- binding [4]: binds
- binding [5]: binds
- binding [6]: binds
Substance: histone acetyltransferase p300 (from UniProt Q09472 1-2414)
